According to PubChem BioAssay AID1634 (National Center for Advancing Translational Sciences (NCATS), 2009):
About 150 (0.058%) of roughly 260,000 compounds were called active. The inconclusive results got no clear call from the source; some entries with a clear call stand among them for comparison. The call rests on the fitted dose curve; in most records, active means well fitted inhibition curve with a large enough effect; inconclusive means small, poorly fitted or top-dose-only effect; inactive means no such curve, though single readings can be large or run the other way. A potency beside an inconclusive call is a rough fit, not a confirmed value.

Each molecule was assayed against Pyruvate kinase PKM (Homo sapiens) (UniProt P14618) (assay: qHTS Assay for Inhibitors of Human Muscle isoform 2 Pyruvate Kinase). Conditions: purified PKM2, ATP generation, Kinase-Glo luminescence; series mostly up to 57.5 µM.
Summary of the method: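 Coupled luciferase luminescence (Kinase-Glo) detects ATP generated from 0.1 mM ADP and 0.5 mM PEP in imidazole buffer pH 7.2 with KCl, MgCl2; 1 h at room temperature. Enzyme at intermediate activity; normalized to uninhibited and no-enzyme controls.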
Further: nearly all actives have a fitted effect of over 60% in size.
Potency means the concentration at half of the fitted maximal effect; tags describe the fitted curve by direction and shape.

Sequence of UniProt P14618 (P14618 whole entry, looked up, canonical isoform): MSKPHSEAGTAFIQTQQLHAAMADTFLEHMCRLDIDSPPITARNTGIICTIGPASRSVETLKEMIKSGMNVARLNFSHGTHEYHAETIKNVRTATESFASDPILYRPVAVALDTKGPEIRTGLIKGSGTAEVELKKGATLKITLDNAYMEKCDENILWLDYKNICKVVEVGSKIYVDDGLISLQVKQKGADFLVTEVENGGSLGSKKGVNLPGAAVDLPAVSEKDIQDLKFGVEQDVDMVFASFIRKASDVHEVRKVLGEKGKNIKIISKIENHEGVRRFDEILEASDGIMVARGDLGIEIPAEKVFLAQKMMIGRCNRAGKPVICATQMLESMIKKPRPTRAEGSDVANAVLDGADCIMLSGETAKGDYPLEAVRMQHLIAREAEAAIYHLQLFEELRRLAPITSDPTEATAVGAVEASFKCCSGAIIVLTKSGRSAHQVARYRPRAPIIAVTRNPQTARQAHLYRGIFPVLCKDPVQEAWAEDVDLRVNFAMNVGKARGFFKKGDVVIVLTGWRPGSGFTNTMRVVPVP

Potency, inactive:
c1ccc(-c2nc(-c3ccco3)cs2)nc1
COc1ccc(N2C(=O)CC(Sc3nc4ccccc4s3)C2=O)cc1OC (stereo unspecified)
CCc1nnc(NC(=O)CSc2nnc(-c3ccc(NS(=O)(=O)c4ccccc4)cc3)o2)s1
Cc1ccccc1OCC(=O)Nc1ccc2c(c1)n(C)c(=O)n2C
CNc1c([N+](=O)[O-])cnn1-c1ccc(Cl)cc1
CCOC(=O)Cn1c(=O)oc2cc(S(=O)(=O)N3CCc4ccccc43)ccc21
CC1=C(C)/C(=N\OS(=O)(=O)c2ccccc2)C=CC1=O

Potency, inconclusive:
CCCOC(=S)NC(=O)c1sc2ccccc2c1Cl 35.5 µM [falling, single point]
CC(C)(C)c1ccc(NC(=O)N2CCCN(c3ccc([N+](=O)[O-])cn3)CC2)cc1 39.8 µM [falling, single point]
COc1ccc(CNc2nc3ccccc3n2C)c(OC)c1 35.5 µM [falling, single point]
CC(=O)Nc1cccc(/C(C)=N/NC(=S)NC(C)C)c1 8.91 µM [falling, single point]
CCSc1n[nH]c(=S)s1 39.8 µM [falling, single point]
O=C(NCc1ccccn1)c1nc(-c2ccc(C(F)(F)F)cc2)no1 3.98 µM [falling, single point]
CC(=O)Nc1ccc(Oc2ccc([N+](=O)[O-])cc2Cl)cc1 7.08 µM [falling, single point]
O=C(N=Nc1c(O)[nH]c2ccccc12)c1cccs1 15.8 µM [falling, single point]
O=c1[nH]c(=S)[nH]c2[nH]c(=S)[nH]c12 28.2 µM [falling, single point]
Cc1nc(NC(=O)c2ccccc2)sc1C 15.8 µM [falling, partial curve]
C/C(=N/NC(=O)c1cc(C2CC2)[nH]n1)c1cccs1 20 µM [falling, partial curve]
COc1ccc(OC)c(N=c2ssnc2Cl)c1 35.5 µM [falling, single point]
CC(=O)Oc1ccc(/C=C2/CCc3ccccc3C2=O)cc1 17.8 µM [falling, partial curve]
O=C1C(C2=NC(C(=O)O)C3C(=O)N(c4ccccc4)C(=O)C23)=C(O)c2ccccc21 (stereo unspecified) 39.8 µM [falling, single point]
